The text below walks through data of the GPR68 mutational scans of Howard et al. (2025).

The least precise scores are not listed. The source holds two more conditions with little spread; they are left out. In variant names, del marks residues removed and ins residues inserted between the two positions. For some assays here: The concentration of ogerin is not given here.

First the molecules themselves.
B1: GPR68, Q15743 (parent)
chain: MGNITADNSSMSCTIDHTIHQTLAPVVYVTVLVVGFPANCLSLYFGYLQIKARNELGVYLCNLTVADLFYICSLPFWLQYVLQHDNWSHGDLSCQVCGILLYENIYISVGFLCCISVDRYLAVAHPFRFHQFRTLKAAVGVSVVIWAKELLTSIYFLMHEEVIEDENQHRVCFEHYPIQAWQRAINYYRFLVGFLFPICLLLASYQGILRAVRRSHGTQKSRKDQIQRLVLSTVVIFLACFLPYHVLLLVRSVWEASCDFAKGVFNAYHFSLLLTSFNCVADPVLYCFVSETTHRDLARLRGACLAFLTCSRTGRAREAYPLGAPEASGKSGAQGEEPELLTKLHPAFQTPNSPGSGGFPTGRLA

In series [1] the parent is B1. The series is described as follows: cAMP reporter score (Enrich2 score, wild type = 0); higher = more signal; HEK293T, FACS bins.
In series [2] the parent is B1. The series is described as follows: surface expression score (Enrich2 score, wild type = 0); higher = more signal; HEK293T, FACS bins.

With T18_I19insG, the cAMP reporter score in series [1] (pH 5.5) is 0.563; in series [1] (pH 6) it was 1.68; in series [1] (pH 6, modulator: ogerin), -0.038; in series [1] (pH 6.5, modulator: ogerin), 0.638. For the same variant, the surface expression score in series [2] was -0.299.
With T30E, the cAMP reporter score was -1.12 in series [1] (pH 5.5); -0.863 in series [1] (pH 6); -1.91 in series [1] (pH 6, modulator: ogerin); -1.34 in series [1] (pH 6.5, modulator: ogerin). Besides, the surface expression score in series [2] is -2.51.
In the case of T30R, the cAMP reporter score in series [1] (pH 5.5) was -2.25; in series [1] (pH 6), -1.19; in series [1] (pH 6, modulator: ogerin), -1.85; in series [1] (pH 6.5, modulator: ogerin), -1.61. Also, in series [2], the surface expression score was -2.45.
As to T30A, the cAMP reporter score in series [1] (pH 5.5) amounted to 0.274; in series [1] (pH 6), 1.54; in series [1] (pH 6, modulator: ogerin), 0.613; in series [1] (pH 6.5, modulator: ogerin), 1.75. For the same variant, the surface expression score in series [2] was 0.531.
In the case of T30W, the cAMP reporter score is 0.803 in series [1] (pH 5.5); 0.112 in series [1] (pH 6); 0.208 in series [1] (pH 6, modulator: ogerin); -0.36 in series [1] (pH 6.5, modulator: ogerin). Besides, the surface expression score in series [2] was -0.247.
As to T30P, the cAMP reporter score in series [1] (pH 5.5) was -1.99; in series [1] (pH 6), -1.16; in series [1] (pH 6, modulator: ogerin), -0.624. The surface expression score in series [2] was -1.67.
Regarding T30G, the cAMP reporter score in series [1] (pH 5.5) is 0.817; in series [1] (pH 6) it was 0.115; in series [1] (pH 6, modulator: ogerin) it was 0.271; in series [1] (pH 6.5, modulator: ogerin), -0.398. The surface expression score in series [2] was -1.17.
T30F: the cAMP reporter score in series [1] (pH 5.5) came out at 1.9; in series [1] (pH 6, modulator: ogerin), 2.51; in series [1] (pH 6.5, modulator: ogerin) it was 3.2. Besides, the surface expression score in series [2] is 3.02.
T30L: the cAMP reporter score in series [1] (pH 5.5) is 0.866; in series [1] (pH 6), 1.84; in series [1] (pH 6, modulator: ogerin) it was 0.787; in series [1] (pH 6.5, modulator: ogerin) it was 2.18. Moreover, the surface expression score in series [2] was 1.32.
As for T30M, the cAMP reporter score in series [1] (pH 5.5) worked out at 0.595; in series [1] (pH 6), 0.832; in series [1] (pH 6, modulator: ogerin), 0.608; in series [1] (pH 6.5, modulator: ogerin), 1.46. In addition, the surface expression score in series [2] was 1.07.
In the case of T30Q, the cAMP reporter score is -1.86 in series [1] (pH 5.5); -1.48 in series [1] (pH 6, modulator: ogerin); -0.694 in series [1] (pH 6.5, modulator: ogerin).
Take T30V: the cAMP reporter score in series [1] (pH 5.5) is 1.44; in series [1] (pH 6) it was 1.92; in series [1] (pH 6, modulator: ogerin), 1.52; in series [1] (pH 6.5, modulator: ogerin), 2.65. For the same variant, the surface expression score in series [2] was determined as 2.3.
As for T30H, the cAMP reporter score was -2.63 in series [1] (pH 5.5) and -0.643 in series [1] (pH 6). Further, the surface expression score in series [2] was -0.574.
Take T30I: the cAMP reporter score in series [1] (pH 5.5) turned out to be 0.932; in series [1] (pH 6) it was 1.07; in series [1] (pH 6, modulator: ogerin), 0.874; in series [1] (pH 6.5, modulator: ogerin) it was 1.33. In addition, in series [2], the surface expression score was determined as 1.76.
As for T30D, the cAMP reporter score in series [1] (pH 5.5) is -0.612; in series [1] (pH 6.5, modulator: ogerin), -0.892. Further, the surface expression score in series [2] is -0.996.
Regarding T30K, the cAMP reporter score in series [1] (pH 5.5) was -0.157; in series [1] (pH 6) it was 0.315; in series [1] (pH 6, modulator: ogerin), -0.838; in series [1] (pH 6.5, modulator: ogerin), -0.06. The surface expression score in series [2] is -3.07.
In the same order, the values of T30C are 0.8, 0.632, 0.758, 0.505 and 0.253.
Consider T30Y, for which the cAMP reporter score in series [1] (pH 5.5) is -1; in series [1] (pH 6), -1.02; in series [1] (pH 6, modulator: ogerin) it was -0.994; in series [1] (pH 6.5, modulator: ogerin), -0.788. In addition, the surface expression score in series [2] was -1.84.
Regarding L32_V33insGSG, the cAMP reporter score in series [1] (pH 5.5) is -1.41; in series [1] (pH 6), -1.25; in series [1] (pH 6, modulator: ogerin), -0.586; in series [1] (pH 6.5, modulator: ogerin), -0.965. Besides, the surface expression score in series [2] is -1.76.
Consider H17del, for which the cAMP reporter score in series [1] (pH 5.5) was -0.656; in series [1] (pH 6), -1.02; in series [1] (pH 6, modulator: ogerin), -1.04; in series [1] (pH 6.5, modulator: ogerin), -0.643. Besides, in series [2], the surface expression score is 0.193.
In the same order, the values of V29_T30del are -1.8, -1.07, -1.42, -0.861 and -2.69.
V34E: the cAMP reporter score in series [1] (pH 5.5) is -0.804; in series [1] (pH 6), -0.723; in series [1] (pH 6, modulator: ogerin), -1.69; in series [1] (pH 6.5, modulator: ogerin), -0.522. For the same variant, the surface expression score in series [2] is -2.6.
For the variant V34A, the cAMP reporter score is -0.151 in series [1] (pH 5.5); -0.2 in series [1] (pH 6); -0.285 in series [1] (pH 6, modulator: ogerin); -1.27 in series [1] (pH 6.5, modulator: ogerin). The surface expression score in series [2] was -1.28.
In the same order, the values of V34D are -0.769, -0.959, -0.631, -0.913 and -1.78.
The like results for V34C were, in that order, 0.253, -0.676, -0.343, -0.321 and -1.64.
In the same order, the values of I19_H20del are -1.32, -1.45, -1.93, -1.38 and -1.72.
As for H17_T18insGS, the cAMP reporter score came to 0.255 in series [1] (pH 5.5); 0.414 in series [1] (pH 6); 0.522 in series [1] (pH 6, modulator: ogerin); 1.03 in series [1] (pH 6.5, modulator: ogerin). In addition, in series [2], the surface expression score is 0.441.
In the same order, the values of V29_T30insG are -1.9, -0.744, -1.6, -1.39 and -2.03.
As for Y28_V29insGSG, the cAMP reporter score in series [1] (pH 5.5) is -1.65; in series [1] (pH 6), -1.07; in series [1] (pH 6, modulator: ogerin) it was -2.37; in series [1] (pH 6.5, modulator: ogerin), -1.18. Also, in series [2], the surface expression score was -2.05.
In the case of V33_V34insGSG, the cAMP reporter score is -1.31 in series [1] (pH 5.5); -1.47 in series [1] (pH 6); -1.82 in series [1] (pH 6, modulator: ogerin); -1.22 in series [1] (pH 6.5, modulator: ogerin). Besides, the surface expression score in series [2] is -2.4.
Consider H17_T18insGSG, for which the cAMP reporter score was 0.73 in series [1] (pH 5.5); -0.478 in series [1] (pH 6); 0.457 in series [1] (pH 6, modulator: ogerin); 1.15 in series [1] (pH 6.5, modulator: ogerin). Besides, in series [2], the surface expression score is 0.706.
Consider H20_Q21insGS, for which the cAMP reporter score in series [1] (pH 5.5) was -1.57; in series [1] (pH 6) it was -1.31; in series [1] (pH 6, modulator: ogerin) it was -2.35; in series [1] (pH 6.5, modulator: ogerin), -1.56. The surface expression score in series [2] was -1.95.
